Source: PMC2784894 (Chemistry & biology, 2009)

Tests used:
[1] = molecular target: GST-mDia1(FH1FH2) (Mus musculus, UniProt O08808); experiment: TIRF microscopy of filaments assembled from formin immobilized on beads; conditions: read-out: half-maximal inhibition of the average number of filaments per bead
[2] = test system: Arp2/3 complex; experiment: actin polymerization stimulated with Arp2/3 complex; conditions: high concentrations of SMIFH2
[3] = molecular target: Fus1 (Schizosaccharomyces pombe, UniProt Q10719); experiment: pyrene-actin assembly fluorescence; format: biochemical; conditions: 2.5 μM actin monomer, 10 nM formin, pH 7.0
[4] = molecular target: Bni1 (Saccharomyces cerevisiae, UniProt P41832); experiment: pyrene-actin assembly fluorescence; format: biochemical; conditions: 2.5 μM actin monomer, 75 nM formin, pH 7.0

SMILES | IC50 [1] | actin polymerization stimulated with Arp2/3 complex [2] | maximum polymerization rate at 50 μM [3] | maximum polymerization rate at 50 μM [4]
O=C1NC(=S)N(c2cccc(Br)c2)C(=O)/C1=C/c1ccco1 [SMIFH2] | ~15 µM | did not eliminate |  | 
O=C1NC(=S)N(c2cccc(Br)c2)C(=O)C1=Cc1ccco1 [compound 1, SMIFH2] |  |  | C. elegans CYK-1, S. pombe Cdc12, S. pombe Fus1 | S. pombe Fus1, S. cerevisae Bni1 and M. musculus mDia2
